The source of these data is PMC7663100 (2020).

For experiment [1], the target named is T1, MINERVA^FL (full length human MINERVA, residues Met1–Phe746), recombinant with N-terminal His6-tag (human, UniProt Q96TA1 1-746).
T1 chain: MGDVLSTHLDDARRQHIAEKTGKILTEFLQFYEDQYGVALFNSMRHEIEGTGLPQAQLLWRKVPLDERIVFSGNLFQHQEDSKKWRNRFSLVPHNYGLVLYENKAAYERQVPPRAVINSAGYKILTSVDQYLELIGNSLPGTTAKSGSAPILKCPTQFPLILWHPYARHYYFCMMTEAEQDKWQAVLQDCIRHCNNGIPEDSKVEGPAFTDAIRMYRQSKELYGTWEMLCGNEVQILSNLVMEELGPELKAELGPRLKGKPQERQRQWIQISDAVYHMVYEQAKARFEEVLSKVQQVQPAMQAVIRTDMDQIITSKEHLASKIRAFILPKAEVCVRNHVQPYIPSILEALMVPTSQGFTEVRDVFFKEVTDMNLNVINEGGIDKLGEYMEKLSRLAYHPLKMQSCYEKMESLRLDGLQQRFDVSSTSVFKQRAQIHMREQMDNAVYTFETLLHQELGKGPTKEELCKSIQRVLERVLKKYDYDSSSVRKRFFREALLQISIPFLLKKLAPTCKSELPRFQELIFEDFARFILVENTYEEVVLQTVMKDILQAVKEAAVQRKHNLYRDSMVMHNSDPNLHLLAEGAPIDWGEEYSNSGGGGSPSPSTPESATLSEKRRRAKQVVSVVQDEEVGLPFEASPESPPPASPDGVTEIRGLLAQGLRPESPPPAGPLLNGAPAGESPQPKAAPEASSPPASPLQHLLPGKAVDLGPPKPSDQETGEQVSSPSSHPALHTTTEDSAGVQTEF
Description: SPR. A general note: In SPR one partner is held on a chip, and binding of the other changes the refractive index at the surface.

The target in experiment [2] is T1, MINERVA^FL (full length human MINERVA, …). The experiment is described as follows: SPR.

B1: Keap1^[…] (N- and C-terminally truncated Keap1, […], containing the Kelch domain) (domain or fragment)
chain: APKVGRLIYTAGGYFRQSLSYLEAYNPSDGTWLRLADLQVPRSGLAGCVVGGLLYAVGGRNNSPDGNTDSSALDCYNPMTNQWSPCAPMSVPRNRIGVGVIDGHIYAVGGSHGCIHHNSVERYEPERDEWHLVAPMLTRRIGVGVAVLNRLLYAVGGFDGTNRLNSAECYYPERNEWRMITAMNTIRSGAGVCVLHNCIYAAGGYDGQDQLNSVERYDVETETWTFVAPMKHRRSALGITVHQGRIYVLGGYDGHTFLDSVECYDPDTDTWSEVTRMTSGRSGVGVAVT
By Kd is commonly meant the equilibrium constant for the complex coming apart. By koff is commonly meant a measure of how fast the partners let go of each other. For B1, the dissociation constant (Kd) in experiment [1] came to 1770 nM. For the same molecule, in experiment [2], the koff is 0.478 s⁻¹.
